Results on 40 molecules are retold here after PubChem BioAssay (NCATS).

Several values for one entry are separate records, joined by “and”; a condition that tells them apart may be missing. Equal entries are not always repeated. This is one part of the list. The main result of the screen is listed elsewhere. These columns were measured beside it and carry no call. Most of these compounds were active or inconclusive in the main read-out, so they are no random draw. Potencies come from curve fits of mixed quality, noted in brackets. Bridge positions count the residues as written; N and C are the ends. Square brackets hold non-standard residues; d marks the D form. Peptide text beside a SMILES is read from it. * marks the point of attachment. ξ: configuration not given here. ξDab(CH2SO3H) = NC(CCNCS(=O)(=O)O)C(=O)O; Heptanoyl(6-Me) = CC(C)CCCCC(=O)*; Dab = NCC[CH](N)C(=O)O
Tags tell the direction and shape of the fitted curve.

The nature of one test: qHTS Assay for Lipid Storage Modulators (AID 1519). The note with it: Drosophila S3 cells, BODIPY lipid droplet/cell ratio, laser cytometry; measured here: cell count channel max response; cells loaded with oleic acid. A digest of the protocol: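 Cells seeded at 5,000 per well were treated with compounds over a concentration series and loaded with oleic acid (400 uM, as added). Lipid droplet fluorescence (488 nm excitation, 500-530 nm channel) was read by laser-scanning cytometry and normalized to 20 uM Triacsin C.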
(In general: In qHTS, concentration-response curves come from the screen itself.)
For the molecule `Cc1noc(C)c1C(=O)N1CCC2(CCCN(C(c3ccccc3)c3ccccc3)C2)CC1`, the max response stood at 12.3%.
Same read-out and setting: with `O=c1cnc2cnc(N3CCNCC3)nc2n1CCc1ccccc1` the figure was 39.2%.
For the molecule `COc1cccc(-c2nc(NCCNC(C)=O)c3ccccc3n2)c1`, the max response was found to be 27.2%.
For `O=C(Cc1ccccc1)Nc1nc2ccc(Cl)cc2c2nc(-c3ccco3)nn12`, the max response was found to be 70.3%.
Same read-out and setting: with `COc1ccccc1-c1cncnc1Nc1ccccc1` the figure was 40.1%; with `CCCCCCCCCCCCCCCC(=O)NCCO`, -34% and 56.3%.
With `C=C1C(=O)O[C@@H]2C3OC3(C)CC/C=C(\C)CC[C@@H]12` (stereo partly specified), the max response worked out at 73.3%.
On the same count and under the same terms, the figure for `COC(=O)[C@H]1[C@H]2CC3c4[nH]c5ccccc5c4CCN3C[C@@H]2CC[C@@H]1O` (stereo partly specified) is 36.1%.
As for `CN(C)c1ncc2nc(CCc3ccccc3)c(=O)n(Cc3ccc(F)cc3)c2n1`, the max response is 17.4%.
Still for that read-out and setting: with `C[C@@]12C(=O)OC(=O)[C@@]1(C)[C@@H]1CC[C@@H]2O1` the figure was 66.1%; with `O=c1c(-c2ccc(F)cc2)nc2cnc(Nc3ccccc3)nc2n1C1CC1`, 27.6%.
Same read-out and setting: the figure for `CN(C)c1ncc2nc(-c3ccc(Cl)cc3)c(=O)n(CCC#N)c2n1` is 46.7%; for `COc1cc(OC)c2cc(-c3ccncc3)cnc2c1` it is 94.2%; for `N#Cc1cccc(-c2ccc3ncnc(N4CCNCC4)c3c2)c1` it is 29.6%.
On the same count and under the same terms, the figure for `CCNc1ncc2nc(-c3ccc(Cl)cc3)c(=O)n(C)c2n1` is 39%.
On to `C[N+](C)(C)CCOC(N)=O`, for which the max response was 32.6% and 3.57%.
Consider `COc1ncc2ncc(=O)n(CCc3ccccc3)c2n1`, for which the max response amounted to 15.4%.
Same read-out and setting: the figure for `COc1ccc(Oc2ncc3nc(C)c(=O)n(-c4ccc(OC)cc4)c3n2)cc1` is 19%.
Consider `c1ccc(Nc2ncncc2-c2ccoc2)cc1`, for which the max response turned out to be 16.8%.
Still for that read-out and setting: the figure for `Cc1ccccc1-c1ccc2ncnc(N3CCOCC3)c2c1` is -4.37%; for `COCCn1c(=O)cnc2cnc(N3CCOCC3)nc21` it is 39%.
The same measure, in the same setting: the figure for `c1nc(NCCN2CCOCC2)c2cc(-c3ccoc3)ccc2n1` is 37.3%.
Still for that read-out and setting: the figure for `O=C(/C=C/c1ccc(O)cc1)c1c(O)cc(O)cc1O` is 77.1%; for `COc1cc(OC)c2c(=O)c(-c3ccccc3)coc2c1` it is 23.8%; for `COc1ccc(C(=O)N2CCC3(CCCN(c4ncccn4)C3)CC2)cc1` it is 18.6%.
As for `COc1ccccc1-c1cncnc1NCc1cccs1`, the max response turned out to be 30.8%.
In the case of `COc1ccc(C(=O)N2CCC[C@@]3(CCN(Cc4nccs4)C3)C2)cc1`, the max response was determined as 15.5%.
The same measure, in the same setting: the figure for `Cc1cnc(CNc2ncnc3ccc(-c4cccc(NS(C)(=O)=O)c4)cc23)cn1` is 30.2%; for `COc1cccc(Nc2ncc3nc(CCc4ccccc4)c(=O)n(C4CC4)c3n2)c1` it is -2.94%.
As for `Clc1ccccc1-c1nc(NCc2cccnc2)c2ccccc2n1`, the max response was 30.2%.
On the same count and under the same terms, with `CCC(C)C1NC(=O)C(CCNCS(=O)(=O)O)NC(=O)C(NC(=O)C(CCNCS(=O)(=O)O)NC(=O)C(NC(=O)C(CCNCS(=O)(=O)O)NC(=O)CCCCC(C)C)C(C)O)CCNC(=O)C(C(C)O)NC(=O)C(CCNCS(=O)(=O)O)NC(=O)C(CCNCS(=O)(=O)O)NC(=O)C(C(C)CC)NC1=O` (stereo unspecified) ({Heptanoyl(6-Me)}-[ξDab(CH2SO3H)]T[ξDab(CH2SO3H)][Dab][ξDab(CH2SO3H)]II[ξDab(CH2SO3H)][ξDab(CH2SO3H)]T; lactam 4-C; configuration not given here) the figure was 52.2%; with `COc1cc(N)c(Cl)cc1C(=O)N[C@H]1CCN(CCCOc2ccc(F)cc2)C[C@@H]1OC`, 111%; with `N#Cc1cccc(-c2nc(NCc3cccs3)c3ccccc3n2)c1`, 18.8%.
As to `CN=C1N[C@H](c2ccccc2)N(c2ccccc2)S1`, the max response was -16%.
Take `COc1ncc2nc(CCc3ccccc3)c(=O)n(C)c2n1`: the max response was found to be 20%.
As to `COc1ccccc1CNc1cc(-c2ccccc2OC)ncn1`, the max response was found to be 2.79%.
Still for that read-out and setting: the figure for `CCCCCCCCCCCCCCCC(=O)O[C@H](CC(=O)O)C[N+](C)(C)C` is 33.9%; for `c1cncc(CNc2ccnc(-c3ccc4c(c3)OCO4)n2)c1` it is 25.3%.
The same measure, in the same setting: the figure for `CN1CCN(c2nc(-c3cccnc3)nc3ccccc23)CC1` is 12.3%; for `CNc1nc(-c2cccc(C#N)c2)nc2ccccc12` it is 35.8%.

The same test, now with this note: Drosophila S3 cells, BODIPY lipid droplet/cell ratio, laser cytometry; measured here: cell number channel AC50; cells loaded with oleic acid.
A word on the AC50: it is the midpoint of the concentration-response curve, whichever way the signal moves. Take `Cc1noc(C)c1C(=O)N1CCC2(CCCN(C(c3ccccc3)c3ccccc3)C2)CC1`: the AC50 was 0.0158 µM [rising, full curve, poor fit].
The same measure, in the same setting: the figure for `O=c1cnc2cnc(N3CCNCC3)nc2n1CCc1ccccc1` is 0.00501 µM [rising, full curve, poor fit]; for `COc1cccc(-c2nc(NCCNC(C)=O)c3ccccc3n2)c1` it is 0.891 µM [rising, full curve, poor fit]; for `O=C(Cc1ccccc1)Nc1nc2ccc(Cl)cc2c2nc(-c3ccco3)nn12` it is 0.708 µM [rising, full curve].
Still for that read-out and setting: the figure for `COc1ccccc1-c1cncnc1Nc1ccccc1` is 2.51 µM [rising, full curve, poor fit]; for `CCCCCCCCCCCCCCCC(=O)NCCO` it is 3.55 µM [falling, partial curve, poor fit].
The same measure, in the same setting: with `C=C1C(=O)O[C@@H]2C3OC3(C)CC/C=C(\C)CC[C@@H]12` (stereo partly specified) the figure was 39.8 µM [rising, single point]; with `COC(=O)[C@H]1[C@H]2CC3c4[nH]c5ccccc5c4CCN3C[C@@H]2CC[C@@H]1O` (stereo partly specified), 31.6 µM [rising, single point].
As to `CN(C)c1ncc2nc(CCc3ccccc3)c(=O)n(Cc3ccc(F)cc3)c2n1`, the AC50 was 0.794 µM [rising, partial curve, poor fit].
Same read-out and setting: with `C[C@@]12C(=O)OC(=O)[C@@]1(C)[C@@H]1CC[C@@H]2O1` the figure was 7.08 µM [rising, full curve, poor fit]; with `O=c1c(-c2ccc(F)cc2)nc2cnc(Nc3ccccc3)nc2n1C1CC1`, 0.0158 µM [rising, full curve, poor fit].
On the same count and under the same terms, the figure for `CN(C)c1ncc2nc(-c3ccc(Cl)cc3)c(=O)n(CCC#N)c2n1` is 5.01 µM [rising, partial curve].
On the same count and under the same terms, the figure for `COc1cc(OC)c2cc(-c3ccncc3)cnc2c1` is 0.891 µM [rising, full curve].
Take `N#Cc1cccc(-c2ccc3ncnc(N4CCNCC4)c3c2)c1`: the AC50 is 0.1 µM [rising, full curve, poor fit].
For the molecule `CCNc1ncc2nc(-c3ccc(Cl)cc3)c(=O)n(C)c2n1`, the half-maximal activity concentration (AC50) was 3.98 µM [rising, partial curve, poor fit].
The same measure, in the same setting: the figure for `C[N+](C)(C)CCOC(N)=O` is 25.1 µM [rising, single point] and 7.94 µM [falling, full curve, poor fit]; for `COc1ncc2ncc(=O)n(CCc3ccccc3)c2n1` it is 3.55 µM [rising, partial curve, poor fit]; for `COc1ccc(Oc2ncc3nc(C)c(=O)n(-c4ccc(OC)cc4)c3n2)cc1` it is 2.51 µM [rising, partial curve].
Take `c1ccc(Nc2ncncc2-c2ccoc2)cc1`: the AC50 was 1.41 µM [rising, full curve, poor fit].
Same read-out and setting: the figure for `Cc1ccccc1-c1ccc2ncnc(N3CCOCC3)c2c1` is 1.58 µM [rising, partial curve]; for `COCCn1c(=O)cnc2cnc(N3CCOCC3)nc21` it is 17.8 µM [rising, partial curve]; for `c1nc(NCCN2CCOCC2)c2cc(-c3ccoc3)ccc2n1` it is 20 µM [rising, partial curve, poor fit].
On to `O=C(/C=C/c1ccc(O)cc1)c1c(O)cc(O)cc1O`, for which the AC50 is 31.6 µM [rising, partial curve, poor fit].
The same measure, in the same setting: with `COc1cc(OC)c2c(=O)c(-c3ccccc3)coc2c1` the figure was 3.55 µM [rising, partial curve, poor fit]; with `COc1ccc(C(=O)N2CCC3(CCCN(c4ncccn4)C3)CC2)cc1`, 2.51 µM [rising, partial curve]; with `COc1ccccc1-c1cncnc1NCc1cccs1`, 0.0251 µM [rising, full curve, poor fit].
The same measure, in the same setting: the figure for `COc1ccc(C(=O)N2CCC[C@@]3(CCN(Cc4nccs4)C3)C2)cc1` is 6.31 µM [rising, partial curve, poor fit]; for `Cc1cnc(CNc2ncnc3ccc(-c4cccc(NS(C)(=O)=O)c4)cc23)cn1` it is 2 µM [rising, full curve, poor fit]; for `COc1cccc(Nc2ncc3nc(CCc4ccccc4)c(=O)n(C4CC4)c3n2)c1` it is 0.282 µM [rising, full curve].
Regarding `Clc1ccccc1-c1nc(NCc2cccnc2)c2ccccc2n1`, the AC50 is 0.1 µM [rising, full curve].
The same measure, in the same setting: with `CCC(C)C1NC(=O)C(CCNCS(=O)(=O)O)NC(=O)C(NC(=O)C(CCNCS(=O)(=O)O)NC(=O)C(NC(=O)C(CCNCS(=O)(=O)O)NC(=O)CCCCC(C)C)C(C)O)CCNC(=O)C(C(C)O)NC(=O)C(CCNCS(=O)(=O)O)NC(=O)C(CCNCS(=O)(=O)O)NC(=O)C(C(C)CC)NC1=O` (stereo unspecified) ({Heptanoyl(6-Me)}-[ξDab(CH2SO3H)]T[ξDab(CH2SO3H)][Dab][ξDab(CH2SO3H)]II[ξDab(CH2SO3H)][ξDab(CH2SO3H)]T; lactam 4-C; configuration not given here) the figure was 22.4 µM [rising, partial curve]; with `COc1cc(N)c(Cl)cc1C(=O)N[C@H]1CCN(CCCOc2ccc(F)cc2)C[C@@H]1OC`, 11.2 µM [rising, partial curve, poor fit].
On to `N#Cc1cccc(-c2nc(NCc3cccs3)c3ccccc3n2)c1`, for which the AC50 was 3.55 µM [rising, partial curve].
With `CN=C1N[C@H](c2ccccc2)N(c2ccccc2)S1`, the concentration at half-maximal activity (AC50) is 6.31 µM [rising, full curve, poor fit].
The same measure, in the same setting: with `COc1ncc2nc(CCc3ccccc3)c(=O)n(C)c2n1` the figure was 0.1 µM [rising, full curve, poor fit].
Still for that read-out and setting: with `COc1ccccc1CNc1cc(-c2ccccc2OC)ncn1` the figure was 1.58 µM [rising, full curve, poor fit].
